What all share (assay): universal protein binding microarray (PBM)
Holding throughout (conditions): transcription factors of Arabidopsis thaliana; high values mean tight binding; most listed sequences are background and not binding sites; double strand, one strand shown

The target in one test is T1, GST-ANAC092(1-176) (UniProt Q9FKA0).
T1 sequence: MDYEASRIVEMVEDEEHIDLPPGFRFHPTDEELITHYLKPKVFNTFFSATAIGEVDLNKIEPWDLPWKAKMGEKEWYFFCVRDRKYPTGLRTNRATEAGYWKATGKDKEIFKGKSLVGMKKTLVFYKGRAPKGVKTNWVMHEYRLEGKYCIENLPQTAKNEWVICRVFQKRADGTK

A further test has as its target GST-NTL6(1-168) (UniProt Q9SCK6).
Another test addresses T2, GST-ANAC019 NAC domain (UniProt Q9C932).
T2 sequence: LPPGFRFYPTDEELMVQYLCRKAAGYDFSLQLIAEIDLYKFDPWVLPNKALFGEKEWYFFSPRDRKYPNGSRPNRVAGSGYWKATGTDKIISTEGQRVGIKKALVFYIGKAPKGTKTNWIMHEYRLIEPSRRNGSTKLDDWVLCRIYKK

The target of another test is T3, GST-ANAC055(1-171) (UniProt Q9LDY8).
T3 sequence: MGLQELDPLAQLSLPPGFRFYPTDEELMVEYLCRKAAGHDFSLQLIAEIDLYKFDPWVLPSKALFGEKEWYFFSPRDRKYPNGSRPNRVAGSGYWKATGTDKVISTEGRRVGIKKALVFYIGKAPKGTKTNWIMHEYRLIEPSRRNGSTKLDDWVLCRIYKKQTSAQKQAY

The next test deals with T4, GST-ATAF1 NAC domain (UniProt Q39013).
T4 sequence: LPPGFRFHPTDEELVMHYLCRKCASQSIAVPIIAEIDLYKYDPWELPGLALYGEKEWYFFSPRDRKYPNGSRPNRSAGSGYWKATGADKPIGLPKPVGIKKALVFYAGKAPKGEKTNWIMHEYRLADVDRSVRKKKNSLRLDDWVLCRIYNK

In test [1] the target is T5, GST-ANAC092(1-285) full length (UniProt Q9FKA0).
T5 sequence: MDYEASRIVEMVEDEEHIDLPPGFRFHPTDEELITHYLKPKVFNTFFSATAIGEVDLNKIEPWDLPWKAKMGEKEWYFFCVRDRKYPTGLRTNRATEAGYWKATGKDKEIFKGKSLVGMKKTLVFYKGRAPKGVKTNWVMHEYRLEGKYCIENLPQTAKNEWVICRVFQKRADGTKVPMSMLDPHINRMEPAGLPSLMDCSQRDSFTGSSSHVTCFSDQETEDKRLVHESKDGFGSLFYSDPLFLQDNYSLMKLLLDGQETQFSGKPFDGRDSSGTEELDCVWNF

The target of a further test is T6, GST-NAP(1-166) (UniProt O49255).
T6 sequence: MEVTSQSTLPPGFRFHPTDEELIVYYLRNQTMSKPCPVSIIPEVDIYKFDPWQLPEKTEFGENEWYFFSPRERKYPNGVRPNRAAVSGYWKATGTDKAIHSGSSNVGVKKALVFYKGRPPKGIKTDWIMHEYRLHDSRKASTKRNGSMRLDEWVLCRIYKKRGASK

For a further test, the target named is T7, GST-NST2(1-184) (UniProt Q9M274).
T7 sequence: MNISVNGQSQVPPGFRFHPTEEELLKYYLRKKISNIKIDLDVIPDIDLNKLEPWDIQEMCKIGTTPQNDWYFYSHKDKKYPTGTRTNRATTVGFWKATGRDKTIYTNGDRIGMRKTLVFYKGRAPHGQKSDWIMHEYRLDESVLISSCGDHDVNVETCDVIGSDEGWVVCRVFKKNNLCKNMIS

The next test addresses T8, GST-NTL8 NAC domain (UniProt Q9XIN7).
T8 sequence: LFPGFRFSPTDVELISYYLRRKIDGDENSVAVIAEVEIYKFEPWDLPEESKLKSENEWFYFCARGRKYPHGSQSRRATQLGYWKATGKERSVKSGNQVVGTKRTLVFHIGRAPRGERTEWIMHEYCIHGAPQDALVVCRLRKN

In a further test the target is T9, GST-SND1(1-203) (UniProt Q9LPI7).
T9 sequence: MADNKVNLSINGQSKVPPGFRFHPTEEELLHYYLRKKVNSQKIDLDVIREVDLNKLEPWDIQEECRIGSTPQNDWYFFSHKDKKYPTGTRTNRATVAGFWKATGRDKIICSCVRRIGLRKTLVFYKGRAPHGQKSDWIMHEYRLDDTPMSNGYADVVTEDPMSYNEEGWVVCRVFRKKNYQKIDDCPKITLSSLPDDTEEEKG

Another test has as its target T10, GST-VND3 NAC domain (UniProt Q9FH59).
T10 sequence: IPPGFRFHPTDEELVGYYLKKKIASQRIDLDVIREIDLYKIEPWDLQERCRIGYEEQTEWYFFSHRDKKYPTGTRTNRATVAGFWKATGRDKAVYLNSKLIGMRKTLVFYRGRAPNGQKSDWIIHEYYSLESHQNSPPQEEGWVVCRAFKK

In a further test the target is T11, GST-VND7 NAC domain (UniProt Q9C8W9).
T11 sequence: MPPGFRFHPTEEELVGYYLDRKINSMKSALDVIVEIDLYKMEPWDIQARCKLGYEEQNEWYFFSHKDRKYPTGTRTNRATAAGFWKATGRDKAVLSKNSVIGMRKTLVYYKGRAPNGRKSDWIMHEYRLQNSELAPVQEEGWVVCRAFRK

The target in test [2] is T12, GST-VOZ2 (Arabidopsis thaliana) (UniProt Q9SLB9).
T12 sequence: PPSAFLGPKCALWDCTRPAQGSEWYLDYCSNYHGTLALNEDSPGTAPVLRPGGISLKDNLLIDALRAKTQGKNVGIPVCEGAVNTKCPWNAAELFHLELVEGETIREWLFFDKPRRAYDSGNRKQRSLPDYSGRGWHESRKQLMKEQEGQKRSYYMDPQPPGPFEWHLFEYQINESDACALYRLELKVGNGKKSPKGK

The list shows a part of the results, in another mix than the full data. For some assays here: At the low end of the ranking the order means little. The list shows a part of the results. For some assays here: Construct or isoform of the protein are uncertain.

Here are results for five sequences from paper PMC4081100.

Chain of UniProt Q9SCK6 (Q9SCK6 1-168): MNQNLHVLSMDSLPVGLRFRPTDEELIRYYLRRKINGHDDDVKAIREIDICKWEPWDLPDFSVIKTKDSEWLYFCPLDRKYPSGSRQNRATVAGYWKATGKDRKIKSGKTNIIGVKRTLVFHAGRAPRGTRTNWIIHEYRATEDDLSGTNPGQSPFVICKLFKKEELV

Regarding ATTGACCC, the binding signal with GST-ANAC092(1-176) was -0.081 E-score; with GST-NTL6(1-168) it was -0.0702 E-score; with GST-ANAC019 NAC domain, -0.0319 E-score; with GST-ANAC055(1-171), -0.104 E-score; with GST-ATAF1 NAC domain, -0.0192 E-score; in test [1], -0.035 E-score. For the same sequence, the binding signal with GST-NAP(1-166) was -0.00515 E-score; in the test with GST-NST2(1-184) it was 0.0177 E-score; with GST-NTL8 NAC domain it was -0.0325 E-score; with GST-SND1(1-203) it was -0.0375 E-score; with GST-VND3 NAC domain, -0.0633 E-score; in the test with GST-VND7 NAC domain, -0.025 E-score. Also, the binding signal in test [2] worked out at 0.121 E-score.

For the sequence CCAGGTCA, the binding signal with GST-ANAC092(1-176) is -0.119 E-score; with GST-NTL6(1-168), -0.127 E-score; with GST-ANAC019 NAC domain, -0.0547 E-score; in the test with GST-ANAC055(1-171), -0.261 E-score; with GST-ATAF1 NAC domain it was -0.269 E-score; in test [1], -0.283 E-score. In addition, the binding signal in the test with GST-NAP(1-166) is -0.133 E-score; with GST-NST2(1-184), -0.176 E-score; in the test with GST-NTL8 NAC domain, -0.0765 E-score; with GST-SND1(1-203), -0.227 E-score; with GST-VND3 NAC domain, -0.27 E-score; with GST-VND7 NAC domain, -0.181 E-score. For the same sequence, the binding signal in [2] is -0.157 E-score.

For the sequence CGGTCTTC, the binding signal in the test with GST-ANAC092(1-176) was -0.035 E-score; with GST-NTL6(1-168), -0.0716 E-score; in the test with GST-ANAC019 NAC domain, -0.0268 E-score; in the test with GST-ANAC055(1-171) it was -0.206 E-score; in the test with GST-ATAF1 NAC domain it was -0.274 E-score; in [1], -0.0549 E-score. In addition, the binding signal in the test with GST-NAP(1-166) was -0.108 E-score; in the test with GST-NST2(1-184) it was -0.131 E-score; with GST-NTL8 NAC domain, -0.0917 E-score; with GST-SND1(1-203), -0.197 E-score; with GST-VND3 NAC domain, -0.115 E-score; with GST-VND7 NAC domain, -0.0194 E-score. The sequence also registered a binding signal in test [2] of -0.245 E-score.

Turning to ACAGGTCA, the binding signal with GST-ANAC092(1-176) was -0.14 E-score; with GST-NTL6(1-168) it was -0.0946 E-score; with GST-ANAC019 NAC domain, -0.0239 E-score; with GST-ANAC055(1-171) it was -0.0119 E-score; with GST-ATAF1 NAC domain, -0.0995 E-score; in test [1] it was -0.182 E-score. Moreover, the binding signal with GST-NAP(1-166) is 0.00402 E-score; with GST-NST2(1-184), 0.0316 E-score; with GST-NTL8 NAC domain it was -0.221 E-score; with GST-SND1(1-203) it was -0.147 E-score; with GST-VND3 NAC domain it was -0.0421 E-score; with GST-VND7 NAC domain, -0.0898 E-score. In addition, the binding signal in test [2] is -0.0863 E-score.

On to GAGTCAAC, for which the binding signal was -0.0278 E-score in the test with GST-ANAC092(1-176); 0.0172 E-score with GST-NTL6(1-168); 0.14 E-score with GST-ANAC019 NAC domain; -0.135 E-score with GST-ANAC055(1-171); -0.0677 E-score with GST-ATAF1 NAC domain; -0.174 E-score in test [1]. The binding signal in the test with GST-NAP(1-166) is -0.0642 E-score; in the test with GST-NST2(1-184), -0.0781 E-score; in the test with GST-NTL8 NAC domain, -0.0617 E-score; with GST-SND1(1-203), -0.0459 E-score; in the test with GST-VND3 NAC domain it was -0.055 E-score; in the test with GST-VND7 NAC domain it was -0.0337 E-score. In test [2], the binding signal is -0.122 E-score.
